# Some of the results follow. Sequences were assembled here from the parent chain. Inactive controls read about 0.05.
# B1: TEV protease; numbered along this chain (parent)
# chain: MGESLFKGPRDYNPISSSICHLTNESDGHTTSLYGIGFGPFIITNKHLFRRNNGTLVVQSLHGVFKVKDTTTLQQHLVDGRDMIIIRMPKDFPPFPQKLKFREPQREERICLVTTNFQTKSMSSMVSDTSCTFPSGDGIFWKHWIQTKDGQCGSPLVSTRDGFIVGIHSASNFTNTNNYFTSVPKNFMELLTNQEAQQWVSGWRLNADSVLWGGHKVFMVKPEEPFQPVKEATQL
# Variants of: B1
# Test: raw area under fraction-flipped curve 0-4 h after induction (AUC4h, not background-subtracted), DNA-recorder readout of cleavage of the substrate (dimensionless); higher = more cleavage of the substrate by the protease variant
# Conditions: temperature: 34 °C; time window: 0-4 h after rhamnose induction
# 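Also: Bxb1 expression induced with 0.2% (w/v) L-rhamnose at OD600 near 0.5, cultures sampled hourly, flipped fraction per protease–substrate barcode pair counted by paired-end Illumina sequencing.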
Variant,area with substrate EKLYFQS,area with substrate EQLYFQS,area with substrate ESLYFQS,area with substrate EGLYFQS,area with substrate EMLYFQS,area with substrate EILYFQS,area with substrate ELLYFQS,area with substrate EPLYFQS,area with substrate ETLYFQS,area with substrate EVLYFQS
MGESLFKGPRDYNPISSSICHLTNESDGHTTSLYGIGFGPFIITNKHLFRRNNGTLVVQSLHGVFKVKDTTTLQQHLVDGRDMIIIRMPKDFPPFPQKLKFREPQREERICLVTTNFQTKSMSSMVSDTSCTFPSGDGIFWKHWIQTKDGQCGSPLVSTRDGFIVGIHSASNFTNTNNYFTSVPKNFMELLTNQEAQQWVSGWRLNADSVLWGGHDVFMVKPEEPFQPVKEATQL [K216D],0.106,0.0943,0.08,,,,,,,
MGESLFKGPRDYNPISSSICHLTNESDGHTTSLYGIGFGPFIITNKHLFRRNNGTLVVQSLHGVFKVKDTTTLQQHLVDGRDMIIIRMPKDFPPFPQKLKFREPQREERICLVTTNFQTKSMSSMVSDTSCTFPSGDGIFWKHWIQTKDGQCGSPLVSTRDGFIVGIHSASNFTNVNNYFTSVPKNFMELLTNQEAQQWVSGWRLNADSVLWGGHKVFMVKPEEPFQPVKEATQL [T176V],,,,0.0813,0.0742,,,,,
MGESLFKGPRDYNPISSSICHLTNESDGHTTSLYGIGFGPFIITNKHLFRRNNGTLVVQSLHGVFKVKDTTTLQQHLVDGRDMIIIRMPKDFPPFPQKLKFREPQREERICHVTTNFQTKSMSSMVSDTSCTFPSGDGIFWKHWIQTKDGQCGSPLVSTRDGFIVGIHSASNFTNTNNYFTSVPKNFMELLTNQEAQQWVSGWRLNADSVLWGGHKVFMVKPEEPFQPVKEATQL [L112H],0.0722,0.0689,0.0752,0.065,0.0641,0.0576,0.0855,0.0878,0.0731,0.0629
MGESLFKGPRDYNPISSSICHLTNESDGHTTSLYGIGFGPFIITNKHLFRRNNGTLVVQSLHGVFKVKDTTTLQQHLVDGRDMIIIRMPKDFPPFPQKLKFREPQREERICLVTTNFQTKSMSSMVSDTSCTFPSGDGIFWKHWIQTKDGQCGSPLVSTRDGFIVGIHSASNFTNTNNYFTSVPKNFMELLTNQEAQQWWSGWRLNADSVLWGGHKVFMVKPEEPFQPVKEATQL [V200W],,0.0649,,,0.0784,,,,,0.0522
MGESLFKGPRDYNPISSSICHLTNESDGHTTSLYGIGFGPFIITNKHLFRRNNGTLVVQSLHGQFKVKDTTTLQQHLVDGRDMIIIRMPKDFPPFPQKLKFREPQREERICLVTTNFQTKSMSSMVSDTSCTFPSGDGIFWKHWIQTKDGQCGSPLVSTRDGFIVGIHSASNFTNTNNYFTSVPKNFMELLTNQEAQQWVSGWRLNADSVLWGGHKVFMVKPEEPFQPVKEATQL [V64Q],,,0.0542,,,0.101,,,0.111,0.0749
MGESLFKGPRDYNPISSSICHLTNESDGHTTSLYGIGFGPFIITNKHLFRRNNGTLVVQSLHGVFKVKDTTTLQQHLVDGRDMIIIRMPKDFPPFPQKLKFREPQREERICLVTTNFQTKSMSSMVSDTSCTFPSGDGIFWKHWIQTKDGQCGSPLVSTRDGFIVGIHSASNFTNTNNYFTSVPKNFMELLWNQEAQQWVSGWRLNADSVLWGGHKVFMVKPEEPFQPVKEATQL [T192W],,,,,,,,,0.0794,

# Same assay, conditions: temperature: 34 °C; time window: 0-4 h after rhamnose induction
Variant,area with substrate EWLYFQS,area with substrate EYLYFQS,area with substrate EHLYFQS,area with substrate ERLYFQS
MGESLFKGPRDYNPISSSICHLTNESDGHTTSLYGIGFGPFIITNKHLFRRNNGTLVVQSLHGVFKVKDTTTLQQHLVDGRDMIIIRMPKDFPPFPQKLKFREPQREERICHVTTNFQTKSMSSMVSDTSCTFPSGDGIFWKHWIQTKDGQCGSPLVSTRDGFIVGIHSASNFTNTNNYFTSVPKNFMELLTNQEAQQWVSGWRLNADSVLWGGHKVFMVKPEEPFQPVKEATQL [L112H],0.0688,0.0734,,
MGESLFKGPRDYNPISSSICHLTNESDGHTTSLYGIGFGPFIITNKHLFRRNNGTLVVQSLHGVFKVKDTTTLQQHLVDGRDMIIIRMPKDFPPFPQKLKFREPQREERICLVTTNFQTKSMSSMVSDTSCTFPSGDGIFWKHWIQTKDGQCGSPLVSTRDGFIVGIHSASNFTNTNNYFTSVPKNFMELLTNQEAQQWWSGWRLNADSVLWGGHKVFMVKPEEPFQPVKEATQL [V200W],0.0658,,0.0614,
MGESLFKGPRDYNPISSSICHLTNESDGHTTSLYGIGFGPFIITNKHLFRRNNGTLVVQSLHGQFKVKDTTTLQQHLVDGRDMIIIRMPKDFPPFPQKLKFREPQREERICLVTTNFQTKSMSSMVSDTSCTFPSGDGIFWKHWIQTKDGQCGSPLVSTRDGFIVGIHSASNFTNTNNYFTSVPKNFMELLTNQEAQQWVSGWRLNADSVLWGGHKVFMVKPEEPFQPVKEATQL [V64Q],0.136,,,0.111
